Test results as given in PubChem BioAssay AID1508623 (National Center for Advancing Translational Sciences (NCATS), 2021).
Hit rate of the full screen: of about 48,000 compounds, about 450 (0.94%) were called active. The inconclusive results got no clear call from the source; some entries with a clear call stand among them for comparison. Calls follow the shape of the dose curve; as a rule, active = well fitted inhibition curve with a large enough effect; inconclusive = small, poorly fitted or top-dose-only effect; inactive = no such curve, though single readings can be large or run the other way. A potency beside an inconclusive call is a rough fit, not a confirmed value.

Assay: Primary qHTS for Identification of Small Molecule Inhibitors of Huntingtin Promoter Activity; also: nearly all actives have a fitted effect of over 50% in size
Conditions: HEK293 HTT promoter firefly luciferase reporter (activity 0% = vehicle and -100% = no light), 24 h; activity change, negative = inhibition: at 57.5 µM (top of the series)
Procedure, shortened: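 Firefly luciferase readout (Dual-Glo, 10 min RT) after 24 h, 37 °C compound exposure (final up to 57.5 uM) of HEK293 reporter cells cultured 24 h beforehand; PTC124 at 50 uM final as control inhibitor; activity scaled vehicle 0%, zero RLU -100%.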
Potency is read from the fitted curve at half-maximal effect; tags tell the direction and shape of the fitted curve.

Potency, inconclusive:
COc1ccc(S(=O)(=O)NCCc2sc(C)nc2C)cc1F 17.8 µM [inhibitor, partial curve, poor fit]
Cc1cccc(OCCCCn2c(C3CC(=O)N(c4ccccc4Cl)C3)nc3ccccc32)c1 (centres undefined) 39.8 µM [inhibitor, partial curve, poor fit]
CCN1C(=O)c2ccccc2Sc2ccc(NC(=O)COc3ccc(Cl)cc3)cc21 39.8 µM [inhibitor, single point]
CCc1ccc(CNC(=O)c2ccc3nc(SCc4ccc(F)cc4)n(C)c3c2)cc1 25.1 µM [inhibitor, partial curve, poor fit]
Cc1ccc(NC(=O)c2cnn(-c3ccc(C)c(C)c3)c2C2CCN(C(=O)OC(C)(C)C)CC2)c(C)c1 31.6 µM [inhibitor, single point]
COc1cc(NC(=O)CN2C(=O)C(c3ccc(C)cc3)=NC23CCCCC3)cc(OC)c1 28.2 µM [inhibitor, single point]
COc1cccc(CNC(=O)C2CCN(C(=O)N3CCOc4ccc(Cl)cc43)CC2)c1OC 31.6 µM [inhibitor, partial curve, poor fit]
Cc1ccsc1CCN1C(=O)N(c2ccccc2)C(=O)C1CC(=O)Nc1ccc(F)cc1 (centres undefined) 22.4 µM [inhibitor, partial curve, poor fit]
COc1ccc(-c2nc3cc(NC(=O)Cc4ccc(Cl)cc4)ccc3o2)cc1OC 31.6 µM [inhibitor, single point]
CCOC(=O)c1ccc(NC(=O)Cn2nc(SC)c(S(=O)(=O)c3ccc(Cl)cc3)c2N)cc1 35.5 µM [inhibitor, single point]
COc1ccccc1NC(=O)N1c2ccccc2Sc2ccccc21 31.6 µM [inhibitor, partial curve, poor fit]
CCOC(=O)c1ccc(NC(=O)C2Cc3ccccc3CN2S(=O)(=O)c2ccc(Cl)cc2)cc1 (centres undefined) 39.8 µM [inhibitor, single point]
COc1ccc(Cl)cc1NS(=O)(=O)c1cc(-c2cc(C)no2)ccc1C 14.1 µM [inhibitor, partial curve]
Cc1cccc(NC(=O)c2cnn(-c3ccccc3)c2-n2cccc2)c1C 22.4 µM [inhibitor, partial curve, poor fit]
CNC(=O)c1ccccc1Nc1nc(Nc2ccc(N3CCOCC3)cc2OC)ncc1Cl 4.85 µM [inhibitor, full curve]
O=C(Cc1ccc(NC(=O)N2CCSc3ncccc32)cc1)NCc1ccccc1Cl 22.4 µM [inhibitor, partial curve, poor fit]
CCOc1ccc(S(=O)(=O)Nc2ccc3oc(C)c(C(=O)OCCOC)c3c2)cc1 15.8 µM [inhibitor, partial curve, poor fit]
COc1cccc(C(=O)NC(=O)Nc2ccc(-c3cc(C(F)(F)F)nn3-c3ccccc3)cc2)c1 1.12 µM [inhibitor, full curve, poor fit]
COc1ccc(C2c3c(-c4ccccc4O)n[nH]c3C(=O)N2Cc2ccco2)cc1 (centres undefined) 15.8 µM [inhibitor, partial curve, poor fit]
CCCCn1c(-c2ccc(S(=O)(=O)N3CCOCC3)cc2)csc1=Nc1ccccc1 14.1 µM [inhibitor, partial curve]
Cc1cccc(Cn2c(CN3CCC(C(=O)NCCc4ccccc4)CC3)cc3ccccc32)c1 39.8 µM [inhibitor, single point]
CSc1ccc(CNC(=O)CCn2ccc3cc(S(=O)(=O)N4CCCC4)ccc32)cc1 35.5 µM [inhibitor, partial curve, poor fit]
O=C(NCCc1csc(-c2cccnc2)n1)c1cccc(C(F)(F)F)c1 25.1 µM [inhibitor, partial curve, poor fit]
CCOC(=O)c1ccccc1NC(=O)CN(c1ccccc1OC)S(=O)(=O)c1ccc(C)cc1 28.2 µM [inhibitor, single point]
Cc1cc(C)cc(OCCn2c(C3CC(=O)N(c4ccccc4Cl)C3)nc3ccccc32)c1 (centres undefined) 25.1 µM [inhibitor, partial curve]
COc1ccc(Cn2c(C(=O)O)c(CNCc3cccc(OC)c3)c3ccc(C)cc32)cc1 28.2 µM [inhibitor, single point]
CCOc1ccc(NC(=O)CC2C(=O)N(c3ccccc3)C(=O)N2CCc2ccc(OC)cc2)cc1 (centres undefined) 2.82 µM [inhibitor, partial curve, poor fit]
O=C1CN(C(=O)Cc2ccc(F)cc2)C(c2ccccc2)c2cc(Br)ccc2N1 (centres undefined) 39.8 µM [inhibitor, single point]
CCOC(=O)c1[nH]c(C)c(CCC(=O)Nc2c(C)cc(C)cc2C)c1C 31.6 µM [inhibitor, partial curve, poor fit]
CCc1nnc(NC(=O)c2nc(S(=O)(=O)Cc3cccc(C)c3)ncc2Cl)s1 31.6 µM [inhibitor, single point]
Cn1c(CN2CCCCC2)nc2cc(NC(=O)c3cccc(Br)c3)ccc21 14.1 µM [inhibitor, partial curve]
O=C(Cn1cc(S(=O)(=O)Cc2ccccc2Cl)c2ccccc21)NCc1ccccc1Cl 20 µM [inhibitor, single point]
COc1cccc(N2C(=O)C(CC(=O)Nc3ccc(Cl)cc3)N(Cc3ccc4c(c3)OCO4)C2=O)c1 (centres undefined) 35.5 µM [inhibitor, partial curve, poor fit]
O=c1[nH]c2ccc(NCc3ccc(-c4cccc(Cl)c4)o3)cc2[nH]1 25.1 µM [inhibitor, partial curve]
Cc1ccc(NC(=O)CN2C(=O)C(c3ccc(F)cc3)=NC23CCCCC3)c(C)c1 12.6 µM [inhibitor, partial curve]
O=C(Cc1ccccc1)N(Cc1cccnc1)c1nc2c(F)cccc2s1 31.6 µM [inhibitor, partial curve, poor fit]
Cc1cc(C)c2c(CC(=O)Nc3ccc(S(=O)(=O)N4CCCC(C)C4)cc3)coc2c1 (centres undefined) 25.1 µM [inhibitor, single point]
OCCn1cc(-c2ccc3c(c2)CCC3=NO)c(-c2ccncc2)n1 27.3 µM [inhibitor, partial curve, poor fit]
CCC(C(=O)Nc1ccc(C(=O)OC)cc1)n1nc(-c2ccc(C)cc2)c2c(c1=O)CCCC2 (centres undefined) 39.8 µM [inhibitor, single point]
COc1cccc(CNC(=O)c2cc3cccc4c3n2CC(C)S4)c1OC (centres undefined) 15.8 µM [inhibitor, partial curve, poor fit]
COc1cc2c(=O)c(S(=O)(=O)c3ccc(F)cc3)cn(Cc3ccccc3C)c2cc1OC 22.4 µM [inhibitor, partial curve, poor fit]
Cc1cc(C)c(S(=O)(=O)Nc2ccc3oc4c(c3c2)C(=O)CC(C)(C)C4)cc1C 35.5 µM [inhibitor, partial curve, poor fit]
COc1cc2c(cc1OC)C(COc1ccc(F)cc1)N(C(=O)c1cccc(F)c1)CC2 (centres undefined) 35.5 µM [inhibitor, single point]
CCOCCn1ccc2c(OCC(=O)Nc3cccc([N+](=O)[O-])c3)cccc2c1=O 39.8 µM [inhibitor, single point]
Cc1noc(/C=C/c2cccs2)c1S(=O)(=O)N1CCC(C(=O)NCc2ccc(Cl)cc2)CC1 14.1 µM [inhibitor, partial curve, poor fit]
Cn1c(=O)c2cc(C(=O)NC3CCCCCC3)sc2c2ccccc21 28.2 µM [inhibitor, partial curve, poor fit]

Activity change, negative = inhibition, inactive:
CCOC(=O)c1nnc2c(-c3ccc(OC)cc3)c(C)nn2c1N -12.3%
COc1ccc(C(=O)NCCc2sc(-c3cccc(F)c3)nc2C)cc1 -25.9%
CCN(c1cccc(C)c1)S(=O)(=O)c1nnc(NC(=O)c2cccs2)s1 -18.2%
Cc1c(C(=O)Nc2ccccc2Br)oc2ccc(S(=O)(=O)N3CCCCC3)cc12 -11.6%
CSc1ncc(Cl)c(C(=O)N(Cc2ccccc2Cl)C2CCS(=O)(=O)C2)n1 (centres undefined) -7.71%
Cc1ccc2nc(NC(=O)c3cc(=O)c4cc(C)c(C)cc4o3)sc2c1 -12.8%
O=C(/C=C/c1cn(CC(O)CN2CCCCCC2)c2ccccc12)c1ccccc1 (centres undefined) -6.07%
CCn1cc(C(=O)NCCCOC(C)C)c(=O)c2cc(S(=O)(=O)N3CCc4ccccc4C3)ccc21 -16.8%
CCN(c1ccccc1)S(=O)(=O)c1cc(-c2onc(C)c2C)ccc1OC -26%
O=C1CC(c2ccccc2)Cc2[nH]c(=O)c(C(=O)Nc3ccc(OC(F)(F)F)cc3)cc21 (centres undefined) -3.63%
Cc1ccc(Nc2ncnc3c2cnn3-c2ccccc2)c(C)c1 22.8%
O=C(Nc1ccc(Cl)cc1F)c1oc(=O)c2ccccc2c1-c1ccccc1 -16.4%
CCn1c(=N)n(CC(O)COc2ccccc2)c2ccccc21 (centres undefined) -6.94%
